Data reported in PubChem BioAssay AID504466 (National Center for Advancing Translational Sciences (NCATS), 2011).
Screen size: about 330,000 compounds; about 4,200 (1.3%) were called active. The shares of active, inactive and inconclusive entries below differ from those in the screen. Calls follow the shape of the dose curve; as a rule, active = well fitted activation curve with a large enough effect; inconclusive = small, poorly fitted or top-dose-only effect; inactive = no such curve, though single readings can be large or run the other way. Where the call is inconclusive, the potency comes from a doubtful curve fit.

assay: qHTS screen for small molecules that induce genotoxicity in human embryonic kidney (HEK293T) cells expressing luciferase-tagged ELG1; details: HEK293T ELG1-luciferase reporter, luminescence, 16 h; series mostly up to 46 µM; also: nearly all actives have a fitted effect of over 60% in size
How it was run: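 16 hr compound incubation (37 °C, 5% CO2) of HEK293T cells carrying luciferase-tagged ELG1; luciferase then measured by ONE-Glo luminescence after 30 min at RT.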
Potency is read from the fitted curve at half-maximal effect; tags tell the direction and shape of the fitted curve.

Question: With Cc1ccc(NC(=O)c2cc(-c3ccco3)on2)cc1C as the compound, how does the Potency read?
Answer: inconclusive: 29.1 µM [activator, partial curve, poor fit]

Question: With O=C(NCc1ccccc1)c1cc(-c2ccco2)on1 as the compound, how does the Potency read?
Answer: inconclusive: 11.6 µM [activator, partial curve]

Question: For CC(C)(C)c1ccc2c(c1)C(=O)c1ccccc1C2=O, which Potency is on record?
Answer: inconclusive: 2.06 µM [activator, full curve]

Question: Which Potency does the source give for Cc1csc(NC(=O)Nc2cccc(Cl)c2)n1 here?
Answer: inconclusive: 14.6 µM [activator, partial curve]

Question: With Cc1ccc(Nc2cc(C)nc(-c3ccccc3O)n2)cc1 as the compound, how does the Potency read?
Answer: inconclusive: 18.4 µM [activator, single point]

Question: For CC12CCC(=O)N1C(C(=O)N1CCN(c3ccc(C(F)(F)F)cc3[N+](=O)[O-])CC1)CS2 (centres undefined), which Potency is on record?
Answer: inactive

Question: For O=c1cc(-c2ccc(O)cc2)oc2ccccc12, which Potency is on record?
Answer: inconclusive: 18.3 µM [activator, partial curve, poor fit]

Question: For CN(CC(=O)Nc1ccc(Cl)c(S(=O)(=O)N(C)C)c1)Cc1ccccc1, which Potency is on record?
Answer: inconclusive: 20.6 µM [activator, single point]

Question: For CN(C)CCCNC(=O)c1cc(C(=O)c2c(Cl)cccc2Cl)c[nH]1, which Potency is on record?
Answer: inactive

Question: With NC(=O)c1ccsc1NC(=O)CSc1nnc(NC2CC2)s1 as the compound, how does the Potency read?
Answer: inactive

Question: For CCNC(=O)c1c(O)c2c([nH]c1=O)CCCC2, which Potency is on record?
Answer: inactive

Question: For CCCSc1nsc(SCCC)c1C#N, which Potency is on record?
Answer: inconclusive: 20.6 µM [activator, single point]

Question: Which Potency does the source give for COc1ccc(C(=O)O/N=C(\N)c2ccccc2)c(OC)c1 here?
Answer: inconclusive: 0.326 µM [activator, full curve]

Question: Which Potency does the source give for CCOc1ccc2nc(NC(=O)Nc3cccs3)sc2c1 here?
Answer: active: 2.59 µM

Question: Which Potency does the source give for Cc1ccc(Cn2nnc3c(=O)[nH]c(C4CCCN(S(=O)(=O)c5ccccc5)C4)nc32)cc1 (centres undefined) here?
Answer: active: 20.6 µM

Question: With CCOCCCNC(=O)c1ccc2c(c1)ncn2C1CCCC1 as the compound, how does the Potency read?
Answer: inconclusive: 23.1 µM [activator, partial curve, poor fit]

Question: Which Potency does the source give for Cc1cc(C)cc(NC(=O)CCc2nc3sc4c(c3c(=O)[nH]2)CCCC4)c1 here?
Answer: active: 0.73 µM

Question: Which Potency does the source give for C/C(=N\NC(=O)c1nnn(-c2nonc2N)c1CN(C)c1ccccc1)c1ccccc1O here?
Answer: inconclusive: 29.1 µM [activator, partial curve, poor fit]

Question: For CCS(=O)(=O)Nc1cccc(-c2nc3cccnc3s2)c1C, which Potency is on record?
Answer: inconclusive: 23.1 µM [activator, single point]

Question: Which Potency does the source give for Cc1cccc(N(C(=O)Cn2nnc(-c3ccccc3F)n2)C(C(=O)NC(C)(C)C)c2ccncc2)c1 (centres undefined) here?
Answer: inconclusive: 20.6 µM [activator, partial curve, poor fit]

Question: For COC(=O)c1sc(NC(=O)c2csc3c2CCCC3)nc1C, which Potency is on record?
Answer: active: 2.59 µM

Question: Which Potency does the source give for O=C(COc1ccc(Cl)cc1Cl)NC(=O)NC1CCCC1 here?
Answer: inconclusive: 11.6 µM [activator, partial curve, poor fit]

Question: Which Potency does the source give for O=C(Cc1cccs1)Nc1ccc(N2CCOCC2)cc1 here?
Answer: inconclusive: 13 µM [activator, partial curve, poor fit]

Question: For CCN(CC(=O)Nc1c(F)cccc1F)C(=O)c1ccc2c(c1)OCCO2, which Potency is on record?
Answer: inconclusive: 18.3 µM [activator, single point]

Question: With O=C(O)c1cccc(NC(=O)c2ccccc2NC(=O)c2cccc([N+](=O)[O-])c2)c1 as the compound, how does the Potency read?
Answer: inactive

Question: Which Potency does the source give for Cc1ccc(-c2nnc(-c3ccc4c(c3)OCO4)o2)cc1 here?
Answer: active: 6.51 µM

Question: Which Potency does the source give for CC(C)C(=O)Nc1ccc2c(c1)nc1n2CCSC1 here?
Answer: inconclusive: 25.9 µM [activator, partial curve, poor fit]

Question: Which Potency does the source give for CCOc1cccc(CN2CCC(N3CCC(C(=O)NCC4CCCO4)CC3)CC2)c1 (centres undefined) here?
Answer: inactive

Question: Which Potency does the source give for C=CCNC(=O)C1CC(=O)N(c2ccc(OCC(=O)N3CCCC3)cc2)C1 (centres undefined) here?
Answer: inactive

Question: For COc1cccc(NC(=O)CSc2nc3ccccc3c3nc4ccccc4n23)c1, which Potency is on record?
Answer: inconclusive: 29.1 µM [activator, single point]

Question: With Cc1cc(NC(=O)CSCC(=O)OC(C)C(=O)c2cc(C)c(C)cc2C)no1 (centres undefined) as the compound, how does the Potency read?
Answer: inconclusive: 23.1 µM [activator, partial curve]

Question: With CC(=O)NS(=O)(=O)c1ccc(NC(=O)CC(C)c2ccccc2)cc1 (centres undefined) as the compound, how does the Potency read?
Answer: inactive

Question: For COc1ccc(/C=N/N(C)c2cc(=O)n(C)c(=O)[nH]2)cc1OC, which Potency is on record?
Answer: inconclusive: 23.1 µM [activator, partial curve, poor fit]

Question: Which Potency does the source give for COc1ccc(C(=O)C(OC(=O)c2ccccc2Cl)c2ccccc2)cc1 (centres undefined) here?
Answer: inconclusive: 16.4 µM [activator, partial curve]

Question: With COc1ccc(C(=O)Nc2cc(C)on2)c(OC)c1 as the compound, how does the Potency read?
Answer: inconclusive: 10.3 µM [activator, partial curve]

Question: Which Potency does the source give for O=C(NCCc1ccccc1)C(=O)Nc1ccc2c(c1)OCCO2 here?
Answer: inconclusive: 18.3 µM [activator, partial curve]

Question: For CN(C)CCCN(C(=O)c1ccc(S(=O)(=O)N2CCc3ccccc32)cc1)c1nc2ccc(Cl)cc2s1, which Potency is on record?
Answer: inconclusive: 23.1 µM [activator, partial curve, poor fit]

Question: Which Potency does the source give for CC(=O)c1ccc(NC(=S)NCCc2cccc(Cl)c2)cc1 here?
Answer: inconclusive: 25.9 µM [activator, single point]

Question: Which Potency does the source give for CCSc1nnc(NC(=O)C2CCCCC2)s1 here?
Answer: inconclusive: 16.4 µM [activator, partial curve, poor fit]

Question: Which Potency does the source give for COc1cccc(/C=C2\C=C(c3ccc(C)cc3)OC2=O)c1OC(C)=O here?
Answer: inactive

Question: Which Potency does the source give for COc1ccc(/C=C2\CCCc3c2nc2ccccc2c3C(=O)OCC(=O)c2c(N)n(C)c(=O)n(C)c2=O)cc1 here?
Answer: inactive

Question: For C=CCn1c(N)c(C(=O)Nc2ccccc2)c2nc3ccccc3nc21, which Potency is on record?
Answer: inconclusive: 23.1 µM [activator, partial curve, poor fit]

Question: Which Potency does the source give for N=c1c(-c2nc3ccccc3[nH]2)cc(C(=O)c2ccco2)nn1-c1ccccc1 here?
Answer: inactive

Question: For Cc1ccc(SC[C@H](CC(C)C)N2CCN(C)CCC2=O)cc1, which Potency is on record?
Answer: inconclusive: 20.6 µM [activator, single point]

Question: For CN(C)/C=C/C(=O)c1cnc(-c2ccc(Cl)cc2)s1, which Potency is on record?
Answer: inconclusive: 6.51 µM [activator, partial curve, poor fit]

Question: With COCCCN1C(=O)c2ccc(C(=O)NCCc3ccccc3)cc2C1=O as the compound, how does the Potency read?
Answer: inconclusive: 14.6 µM [activator, partial curve]

Question: Which Potency does the source give for CCNC1=C(Cl)C(=O)c2ccccc2C1=O here?
Answer: inactive

Question: With Cc1ccc(C(=O)Nc2nc(C)c(C(=O)N(C)C)s2)o1 as the compound, how does the Potency read?
Answer: inconclusive: 20.6 µM [activator, single point]

Question: With CCn1c(SCc2ccc(C(=O)Nc3nccs3)cc2)nnc1-c1ccc(N)cc1 as the compound, how does the Potency read?
Answer: inactive

Question: Which Potency does the source give for Cc1ccc(NC(=O)c2ncc(Cl)c(Cl)c2Cl)cc1C here?
Answer: inconclusive: 8.2 µM [activator, partial curve, poor fit]

Question: For CCN(CC(=O)Nc1c(F)cccc1F)C(=O)c1ccc(OCc2c(C)noc2C)cc1, which Potency is on record?
Answer: inactive

Question: For O=C(Nc1nc(-c2ccccn2)cs1)c1ccc(Br)s1, which Potency is on record?
Answer: inconclusive: 16.4 µM [activator, partial curve, poor fit]

Question: With Cc1ccc(/C=C/C(=O)OCC(=O)NCc2cccs2)o1 as the compound, how does the Potency read?
Answer: inactive

Question: With O=C(NCC(c1ccco1)N1CCc2ccccc21)C(=O)Nc1ccc(F)cc1F (centres undefined) as the compound, how does the Potency read?
Answer: inconclusive: 23.1 µM [activator, single point]

Question: With Cc1ccc(C(=O)Nc2c3c(nn2-c2ccccc2)CS(=O)(=O)C3)cc1C as the compound, how does the Potency read?
Answer: inactive

Question: Which Potency does the source give for Nc1ccc(-c2nc3ncccc3o2)c(Cl)c1 here?
Answer: active: 10.3 µM

Question: For c1ccc(-c2nc3ccccc3[nH]2)cc1, which Potency is on record?
Answer: inconclusive: 5.17 µM [activator, partial curve]

Question: Which Potency does the source give for COc1cc(NC(=O)C/C(C)=N/NC(=O)C(=O)NCCO)c(OC)cc1Cl here?
Answer: inactive

Question: Which Potency does the source give for COCCNC(=O)c1cc2c(s1)-c1ccc(Cl)cc1SC2 here?
Answer: inconclusive: 9.2 µM [activator, partial curve, poor fit]

Question: With Cc1ccc(-c2noc(CNCCCN(C)C)n2)cc1 as the compound, how does the Potency read?
Answer: inconclusive: 25.9 µM [activator, partial curve, poor fit]

Question: Which Potency does the source give for CCCSc1ccc(C(=O)Nc2ccc(Cl)cc2)cn1 here?
Answer: inconclusive: 20.6 µM [activator, partial curve, poor fit]

Question: With CCCCCC(=O)Nc1ccc(N2CCN(CC)CC2)c(Cl)c1 as the compound, how does the Potency read?
Answer: active: 18.4 µM

Question: Which Potency does the source give for CCN1CCCC1CNC(=O)c1cc2c(=O)n(C)c3ccccc3c2n1C (centres undefined) here?
Answer: inconclusive: 20.6 µM [activator, partial curve, poor fit]

Question: With Cn1c(-c2ccccc2)cnc1SCC(=O)N1CCCc2ccccc21 as the compound, how does the Potency read?
Answer: inactive

Question: Which Potency does the source give for Cc1ccc(NC(=O)COc2ccc3c(c2)CCC3)nc1 here?
Answer: active: 9.2 µM

Question: With Cc1ccc2c(Cl)c(C(=O)Nc3cc(C)on3)sc2c1 as the compound, how does the Potency read?
Answer: active: 8.2 µM

Question: With CC(=O)c1ccc(Sc2ccc(C(C)=O)cc2)cc1 as the compound, how does the Potency read?
Answer: inconclusive: 20.6 µM [activator, partial curve, poor fit]

Question: Which Potency does the source give for Cc1c2cn[nH]c(=O)c2c(C)n1-c1ccccc1 here?
Answer: inactive

Question: For c1ccc(N=P(c2nc3ccccc3o2)(N2CCOCC2)N2CCOCC2)cc1, which Potency is on record?
Answer: inconclusive: 25.9 µM [activator, partial curve, poor fit]

Question: With Clc1nc2c(-c3ccccc3)nnn2c2ccccc12 as the compound, how does the Potency read?
Answer: inactive

Question: With Cc1cccc(CCNC(=O)CNS(=O)(=O)c2ccc3nc(C)sc3c2)c1 as the compound, how does the Potency read?
Answer: inactive

Question: Which Potency does the source give for CCCc1nn(C)c(C(=O)Nc2ccc(Cl)cc2)c1Cl here?
Answer: inactive

Question: Which Potency does the source give for CCCn1c(SCC(=O)NCc2cccs2)nc2c1c(=O)n(C)c(=O)n2C here?
Answer: inactive

Question: For C/C(CC(=O)Nc1ccc2ccccc2c1)=N\NC(=O)c1ccc(O)c(O)c1, which Potency is on record?
Answer: inconclusive: 23.1 µM [activator, partial curve, poor fit]
